Hit rate of the full screen: of about 150,000 compounds, about 540 (0.36%) showed an effect of 50% or more. The list shows a part of the results.
What follows are compounds tested on Plasmodium falciparum (assay: Primary screen in NF54 nanoGlo assay, in single point, at 2uM, 72h; a lower Z score goes with more inhibition). Conditions: timepoint 72 hour.
Assay type: functional, Erythrocyte

First: CC(=O)Nc1nc2ccc(NC(=O)c3ccc(C)nc3)cc2s1
Second: CC(=O)Nc1nc(C(=O)N[C@H]2CCCc3ccc(C)cc32)cs1
The “% Inhibition” value of the first is higher: 0% for the first, -2% for the second.

Going from `CCCCn1cc(S(=O)(=O)NCc2ccccn2)c2cccnc21` to `CN(Cc1nnc2ccccn12)c1ccnc2cc(F)ccc12`, the “% Inhibition” value falls from -8% to -15%.

Compared with `Cc1cccc(CN2CCC(Cn3ccnc3C)CC2)n1`, `Cc1cnn(CC2CCN(C(=O)CCn3nnnc3C)CC2)c1` is lower in “% Inhibition” value: 0% for the first, -7% for the second.

Compared with `CCOC(=O)CN1CCNC(=O)CC12CN(C(=O)OC(C)(C)C)C2`, `CCOC1CC(OC(=O)CCc2c(C)nn(C)c2C)C1(CC)CC` (centres undefined) is lower in “% Inhibition” value: 19% for the first, -13% for the second.

Compared with `COc1cc2c(cc1C(=O)N1C[C@@H](CN3CCCCC3)[C@@H](CO)C1)CCC2`, `O=C(c1nc2sccn2c1CN1CCC[C@H](CN2CCCCC2)C1)N1CCCC1` is higher in “% Inhibition” value: -16% for the first, -8% for the second.

Going from `CCN(Cc1cnn(CC)c1)c1nc(C)cc(C)c1C#N` to `CCOCc1nc(CCC(N)=O)n(-c2cccc(C)c2C)n1`, the “% Inhibition” value falls from -6% to -23%.

Going from `COc1ccccc1C1CC1NC(=O)NC1c2ccccc2CC1O` (centres undefined) to `O=C(NC[C@H]1COC2(CCCC2)O1)Nc1c(F)cccc1Oc1ccccc1`, the “% Inhibition” value falls from -5% to -12%.

Compared with `CC(F)(F)C(=O)N1CCC[C@H](S(=O)(=O)N2CCc3ccccc32)C1`, `CC(C)(O)C1CN(C(=O)NC[C@H]2Cc3ccccc3CN2)C1` is lower in “% Inhibition” value: 0% for the first, -3% for the second.

First: c1ccc2nc(O[C@H]3CCNC3)ccc2c1
Second: O=C1NC(=O)C(C2CC2c2ccccc2)N1 (centres undefined)
The “% Inhibition” value of the first is lower: -11% for the first, -7% for the second.

Compared with `CN(Cc1ccc2c(c1)OCO2)C(=O)[C@H]1CC1(Cl)Cl`, `CN(C(=O)[C@@H](c1ccc(Cl)cc1Cl)N1CCOCC1)C1CC(C)(C)C1` is higher in “% Inhibition” value: -11% for the first, 17% for the second.

First: Cn1cc(-c2ccc3c(c2)OCC[C@@H]2CC[C@H](O)[C@@H](CNC(=O)[C@@H]4C[C@@H](CN4Cc4ccc(F)c(F)c4)NC3=O)O2)cn1
Second: Cc1cnc([C@@H]2CCCN2C(=O)NCc2ccccc2)n1Cc1ccc(F)cc1
The “% Inhibition” value of the first is lower: 1% for the first, 5% for the second.

Going from `Cc1sc2ncnc(NCc3nn(C)cc3C(F)F)c2c1C` to `CC(=O)NC1CN(c2ncnc3c(C)csc23)C1`, the “% Inhibition” value falls from -6% to -10%.

Compared with `COCCS(=O)(=O)NCCCCn1ccnc1`, `COCCN(Cc1ccsc1)S(=O)(=O)c1cnn(C)c1` is higher in “% Inhibition” value: -10% for the first, -6% for the second.

Going from `CNS(=O)(=O)Nc1ccc(NC(=O)[C@@H]2CCCCC(=O)N2)cc1` to `COCC1(NC(=O)Nc2ccc3[nH]ccc3c2)CCCC1`, the “% Inhibition” value falls from -7% to -18%.

Compared with `C#CCOC1CCN(CCN2CCCCC2)CC1`, `COc1cccc(CNC(=O)c2c(OC)cc(=O)n3c2CCN(C(=O)CC2CC2)CC3)c1` is lower in “% Inhibition” value: -11% for the first, -12% for the second.

Compared with `CCNC(=O)c1ccnc(N2CCC(C(=O)O)(n3ccnc3C)CC2)c1`, `Cc1nnc2n1CC1CCC(C2)N1C(=O)CCc1conc1-c1ccccc1` (centres undefined) is lower in “% Inhibition” value: -4% for the first, -13% for the second.

Compared with `CC1C(=O)Nc2cccnc2N1S(=O)(=O)C(C)C(=O)N(C)C` (centres undefined), `CCN1CN([C@@H](C)c2ncc(C)o2)CC1=O` is lower in “% Inhibition” value: 1% for the first, -9% for the second.

Compared with `c1ccc(Cc2noc(-c3nc(-c4ccccc4)no3)n2)cc1`, `CCOc1cc(-c2noc(-c3cc4n(n3)C[C@@H](c3ccc(Cl)cc3)OC4)n2)ccc1OC` is higher in “% Inhibition” value: -14% for the first, -9% for the second.

Going from `Cc1nn(-c2ccc3nnc(C)n3n2)c2c1[C@@H](c1ccc(O)c(Cl)c1)CC(=O)N2` to `O=C1CCN(Cc2ccc3cc[nH]c3c2)C2(CN1)COC2`, the “% Inhibition” value falls from 5% to -12%.

First: CC(C)(N)COc1ncccc1C(F)(F)F
Second: CCCC(C)(C)NC(=O)Cc1cccc(N)c1
The “% Inhibition” value of the first is lower: -31% for the first, -1% for the second.

First: Cc1n[nH]c(C(=O)N(C)CC2CC2)c1Br
Second: C[C@@H](C(=O)O)n1cc(-c2cccc3c2OC(F)(F)O3)cn1
The “% Inhibition” value of the first is lower: -3% for the first, -1% for the second.

Going from `CC(=O)Nc1nc2ccc(NC(=O)c3ccc(C)nc3)cc2s1` to `CC(=O)Nc1nc(C(=O)N[C@H]2CCCc3ccc(C)cc32)cs1`, the Z score rises from -0.07 to 0.43.

Compared with `CCCCn1cc(S(=O)(=O)NCc2ccccn2)c2cccnc21`, `CN(Cc1nnc2ccccn12)c1ccnc2cc(F)ccc12` is higher in Z score: 1.47 for the first, 1.97 for the second.

First: Cc1cccc(CN2CCC(Cn3ccnc3C)CC2)n1
Second: Cc1cnn(CC2CCN(C(=O)CCn3nnnc3C)CC2)c1
The Z score of the first is lower: -0.03 for the first, 1.08 for the second.

First: CCOC(=O)CN1CCNC(=O)CC12CN(C(=O)OC(C)(C)C)C2
Second: CCOC1CC(OC(=O)CCc2c(C)nn(C)c2C)C1(CC)CC (centres undefined)
The Z score of the first is lower: -2.18 for the first, 2.19 for the second.

Compared with `COc1cc2c(cc1C(=O)N1C[C@@H](CN3CCCCC3)[C@@H](CO)C1)CCC2`, `O=C(c1nc2sccn2c1CN1CCC[C@H](CN2CCCCC2)C1)N1CCCC1` is lower in Z score: 3.37 for the first, 1.23 for the second.

Going from `CCN(Cc1cnn(CC)c1)c1nc(C)cc(C)c1C#N` to `CCOCc1nc(CCC(N)=O)n(-c2cccc(C)c2C)n1`, the Z score rises from 1.06 to 2.71.

Compared with `COc1ccccc1C1CC1NC(=O)NC1c2ccccc2CC1O` (centres undefined), `O=C(NC[C@H]1COC2(CCCC2)O1)Nc1c(F)cccc1Oc1ccccc1` is higher in Z score: 0.65 for the first, 1.88 for the second.

First: CC(F)(F)C(=O)N1CCC[C@H](S(=O)(=O)N2CCc3ccccc32)C1
Second: CC(C)(O)C1CN(C(=O)NC[C@H]2Cc3ccccc3CN2)C1
The Z score of the first is lower: 0.06 for the first, 0.61 for the second.

Compared with `c1ccc2nc(O[C@H]3CCNC3)ccc2c1`, `O=C1NC(=O)C(C2CC2c2ccccc2)N1` (centres undefined) is lower in Z score: 2.04 for the first, 1.12 for the second.

First: CN(Cc1ccc2c(c1)OCO2)C(=O)[C@H]1CC1(Cl)Cl
Second: CN(C(=O)[C@@H](c1ccc(Cl)cc1Cl)N1CCOCC1)C1CC(C)(C)C1
The Z score of the first is higher: 1.59 for the first, -1.99 for the second.

Compared with `Cn1cc(-c2ccc3c(c2)OCC[C@@H]2CC[C@H](O)[C@@H](CNC(=O)[C@@H]4C[C@@H](CN4Cc4ccc(F)c(F)c4)NC3=O)O2)cn1`, `Cc1cnc([C@@H]2CCCN2C(=O)NCc2ccccc2)n1Cc1ccc(F)cc1` is lower in Z score: -0.16 for the first, -0.71 for the second.

Compared with `Cc1sc2ncnc(NCc3nn(C)cc3C(F)F)c2c1C`, `CC(=O)NC1CN(c2ncnc3c(C)csc23)C1` is higher in Z score: 1 for the first, 2.01 for the second.

First: COCCS(=O)(=O)NCCCCn1ccnc1
Second: COCCN(Cc1ccsc1)S(=O)(=O)c1cnn(C)c1
The Z score of the first is higher: 1.86 for the first, 1.12 for the second.

First: CNS(=O)(=O)Nc1ccc(NC(=O)[C@@H]2CCCCC(=O)N2)cc1
Second: COCC1(NC(=O)Nc2ccc3[nH]ccc3c2)CCCC1
The Z score of the first is lower: 0.96 for the first, 2.22 for the second.

Compared with `C#CCOC1CCN(CCN2CCCCC2)CC1`, `COc1cccc(CNC(=O)c2c(OC)cc(=O)n3c2CCN(C(=O)CC2CC2)CC3)c1` is higher in Z score: 1.47 for the first, 1.73 for the second.

First: CCNC(=O)c1ccnc(N2CCC(C(=O)O)(n3ccnc3C)CC2)c1
Second: Cc1nnc2n1CC1CCC(C2)N1C(=O)CCc1conc1-c1ccccc1 (centres undefined)
The Z score of the first is lower: 0.68 for the first, 1.74 for the second.

First: CC1C(=O)Nc2cccnc2N1S(=O)(=O)C(C)C(=O)N(C)C (centres undefined)
Second: CCN1CN([C@@H](C)c2ncc(C)o2)CC1=O
The Z score of the first is lower: -0.19 for the first, 0.87 for the second.

Compared with `c1ccc(Cc2noc(-c3nc(-c4ccccc4)no3)n2)cc1`, `CCOc1cc(-c2noc(-c3cc4n(n3)C[C@@H](c3ccc(Cl)cc3)OC4)n2)ccc1OC` is lower in Z score: 1.82 for the first, 1.07 for the second.

First: Cc1nn(-c2ccc3nnc(C)n3n2)c2c1[C@@H](c1ccc(O)c(Cl)c1)CC(=O)N2
Second: O=C1CCN(Cc2ccc3cc[nH]c3c2)C2(CN1)COC2
The Z score of the first is lower: -0.59 for the first, 1.67 for the second.

Going from `CC(C)(N)COc1ncccc1C(F)(F)F` to `CCCC(C)(C)NC(=O)Cc1cccc(N)c1`, the Z score falls from 3.66 to 0.11.

Compared with `Cc1n[nH]c(C(=O)N(C)CC2CC2)c1Br`, `C[C@@H](C(=O)O)n1cc(-c2cccc3c2OC(F)(F)O3)cn1` is lower in Z score: 0.33 for the first, 0.18 for the second.
